From the supplement of paper PMC11876631
Substitutions are numbered along the chain they refer to. Names may count otherwise. ± gives the standard deviation of the averaged measurements. Laboratory Escherichia coli strains with one amino-acid change in an essential protein, pooled on minimal glucose agar with carbenicillin or gentamicin at twice the control MIC (plus kanamycin and chloramphenicol for the plasmids), 48 h. Fold change of barcode share against drug-free plates; higher = less susceptible. Active = above 20 in both replicates (the paper's putatively resistant). '<' = one read or none on drug, '>' = one read or none on a drug-free plate. Shares are relative, so most strains fall below 1 when a few take over. Listed are strains with at least 15 reads on both drug-free plates, and hits; most hits rest on fewer reference reads. Replicate rank correlation about 0.5. Edits are read from barcodes.

Molecular target: Escherichia coli (laboratory strain)
Test: barcode share on antibiotic plates over drug-free plates; higher = less susceptible
Experimental: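 A pool of E. coli strains, each edited to carry one amino-acid change in an essential protein, was grown for 48 h on minimal glucose agar with or without antibiotic; strain barcodes were sequenced; mean of two replicates.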

[1] = antibiotic: carbenicillin, 2× MIC (3.1 µg/mL)
[2] = antibiotic: gentamicin, 2× MIC (MIC 0.45 µg/mL)

B1: fabD V114W (protein)
chain: MTQFAFVFPGQGSQTVGMLADMAASYPIVEETFAEASAALGYDLWALTQQGPAEELNKTWQTQPALLTASVALYRVWQQQGGKAPAMMAGHSLGEYSALVCAGVIDFADAVRLWEMRGKFMQEAVPEGTGAMAAIIGLDDASIAKACEEAAEGQVVSPVNFNSPGQVVIAGHKEAVERAGAACKAAGAKRALPLPVSVPSHCALMKPAADKLAVELAKITFNAPTVPVVNNVDVKCETNGDAIRDALVRQLYNPVQWTKSVEYMAAQGVEHLYEVGPGKVLTGLTKRIVDTLTASALNEPSAMAAALEL
[1]
  fold change of barcode share: 0.372 ± 0.32
[2]
  fold change of barcode share: < 0.00905

B2: fabD V114Q (protein)
chain: B1 chain with W114Q
[1]
  fold change of barcode share: 0.378 ± 0.073
[2]
  fold change of barcode share: < 0.00549

B3: fabD V114D (protein)
chain: B1 chain with W114D
[1]
  fold change of barcode share: 0.324 ± 0.038
[2]
  fold change of barcode share: < 0.00816

B4: argA M439W (protein)
chain: MVKERKTELVEGFRHSVPYINTHRGKTFVIMLGGEAIEHENFSSIVNDIGLLHSLGIRLVVVYGARPQIDANLAAHHHEPLYHKNIRVTDAKTLELVKQAAGTLQLDITARLSMSLNNTPLQGAHINVVSGNFIIAQPLGVDDGVDYCHSGRIRRIDEDAIHRQLDSGAIVLMGPVAVSVTGESFNLTSEEIATQLAIKLKAEKMIGFCSSQGVTNDDGDIVSELFPNEAQARVEAQEEKGDYNSGTVRFLRGAVKACRSGVRRCHLISYQEDGALLQELFSRDGIGTQIVMESAEQIRRATINDIGGILELIRPLEQQGILVRRSREQLEMEIDKFTIIQRDNTTIACAALYPFPEEKIGEMACVAVHPDYRSSSRGEVLLERIAAQAKQSGLSKLFVLTTRSIHWFQERGFTPVDIDLLPESKKQLYNYQRKSKVLWADLG
[1]
  fold change of barcode share: 0.435 ± 0.068
[2]
  fold change of barcode share: 0.205 ± 0.26

B5: fabD V114P (protein)
chain: B1 chain with W114P
[1]
  fold change of barcode share: 0.32 ± 0.048
[2]
  fold change of barcode share: < 0.00443

B6: fabD I135A (protein)
chain: B1 chain with W114V, I135A
[1]
  fold change of barcode share: 2.04 ± 1.3
[2]
  fold change of barcode share: < 0.00302

B7: fabD I135W (protein)
chain: B1 chain with W114V, I135W
[1]
  fold change of barcode share: 0.389 ± 0.1
[2]
  fold change of barcode share: < 0.00402

B8: fabD I135Q (protein)
chain: B1 chain with W114V, I135Q
[1]
  fold change of barcode share: 0.476 ± 0.12
[2]
  fold change of barcode share: < 0.00369

B9: fabD I135P (protein)
chain: B1 chain with W114V, I135P
[1]
  fold change of barcode share: 0.537 ± 0.096
[2]
  fold change of barcode share: 0.00729 ± 0.0041

B10: fabD V168A (protein)
chain: B1 chain with W114V, V168A
[1]
  fold change of barcode share: 0.215 ± 0.032
[2]
  fold change of barcode share: < 0.00718

B11: fabD V168P (protein)
chain: B1 chain with W114V, V168P
[1]
  fold change of barcode share: 0.334 ± 0.18
[2]
  fold change of barcode share: < 0.00895

B12: fabD I169A (protein)
chain: B1 chain with W114V, I169A
[1]
  fold change of barcode share: 0.209 ± 0.085
[2]
  fold change of barcode share: < 0.00531

B13: fabD L251A (protein)
chain: B1 chain with W114V, L251A
[1]
  fold change of barcode share: 0.299 ± 0.098
[2]
  fold change of barcode share: < 0.00501

B14: fabD L251W (protein)
chain: B1 chain with W114V, L251W
[1]
  fold change of barcode share: 0.55 ± 0.16
[2]
  fold change of barcode share: 0.00662 ± 0.0022
